No constants are given. Whether binding was seen depends on the method and setting. For some of these results: Binding seen in cells or lysates may run through a third protein. Some entries that bind do so weakly or less than the wild type. For some of these results: Tags and fused reporters may be left off the sequences shown.
How the values were obtained:
[1] = target: T1, SALL2 (endogenous) (human (endogenous in HEK 293T)) (UniProt Q9Y467); experiment: co-IP; endogenous proteins, HEK 293T lysate; precipitated with anti-SALL2 antibody (Bethyl A303-208A), western blot
T1 sequence: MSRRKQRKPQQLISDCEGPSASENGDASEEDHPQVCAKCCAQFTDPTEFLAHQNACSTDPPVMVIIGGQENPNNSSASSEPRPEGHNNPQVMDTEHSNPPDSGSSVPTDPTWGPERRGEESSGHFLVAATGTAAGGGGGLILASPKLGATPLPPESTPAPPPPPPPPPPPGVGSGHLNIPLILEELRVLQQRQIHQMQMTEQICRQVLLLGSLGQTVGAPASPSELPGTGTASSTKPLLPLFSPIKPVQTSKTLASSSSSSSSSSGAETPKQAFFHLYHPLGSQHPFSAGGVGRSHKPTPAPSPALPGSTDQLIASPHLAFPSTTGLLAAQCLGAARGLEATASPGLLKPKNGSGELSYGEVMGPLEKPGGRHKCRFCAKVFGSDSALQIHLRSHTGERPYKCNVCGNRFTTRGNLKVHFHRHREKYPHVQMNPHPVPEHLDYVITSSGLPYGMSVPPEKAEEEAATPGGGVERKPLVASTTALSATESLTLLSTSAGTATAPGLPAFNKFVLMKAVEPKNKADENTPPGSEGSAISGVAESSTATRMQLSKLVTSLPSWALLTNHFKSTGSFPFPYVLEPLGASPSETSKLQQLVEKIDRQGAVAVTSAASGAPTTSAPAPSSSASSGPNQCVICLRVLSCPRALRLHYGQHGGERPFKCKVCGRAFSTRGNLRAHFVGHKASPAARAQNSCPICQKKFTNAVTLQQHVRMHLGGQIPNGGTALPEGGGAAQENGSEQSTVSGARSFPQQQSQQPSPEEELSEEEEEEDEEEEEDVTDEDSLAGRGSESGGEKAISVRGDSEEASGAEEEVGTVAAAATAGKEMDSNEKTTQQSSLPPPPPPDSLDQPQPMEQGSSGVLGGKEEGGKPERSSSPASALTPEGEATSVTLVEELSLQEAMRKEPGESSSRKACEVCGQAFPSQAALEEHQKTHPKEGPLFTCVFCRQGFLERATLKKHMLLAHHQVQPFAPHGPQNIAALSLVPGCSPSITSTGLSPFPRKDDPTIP

Protein sequences, listed by entry. Tags and fused reporters are not part of them.
UniProt Q13620: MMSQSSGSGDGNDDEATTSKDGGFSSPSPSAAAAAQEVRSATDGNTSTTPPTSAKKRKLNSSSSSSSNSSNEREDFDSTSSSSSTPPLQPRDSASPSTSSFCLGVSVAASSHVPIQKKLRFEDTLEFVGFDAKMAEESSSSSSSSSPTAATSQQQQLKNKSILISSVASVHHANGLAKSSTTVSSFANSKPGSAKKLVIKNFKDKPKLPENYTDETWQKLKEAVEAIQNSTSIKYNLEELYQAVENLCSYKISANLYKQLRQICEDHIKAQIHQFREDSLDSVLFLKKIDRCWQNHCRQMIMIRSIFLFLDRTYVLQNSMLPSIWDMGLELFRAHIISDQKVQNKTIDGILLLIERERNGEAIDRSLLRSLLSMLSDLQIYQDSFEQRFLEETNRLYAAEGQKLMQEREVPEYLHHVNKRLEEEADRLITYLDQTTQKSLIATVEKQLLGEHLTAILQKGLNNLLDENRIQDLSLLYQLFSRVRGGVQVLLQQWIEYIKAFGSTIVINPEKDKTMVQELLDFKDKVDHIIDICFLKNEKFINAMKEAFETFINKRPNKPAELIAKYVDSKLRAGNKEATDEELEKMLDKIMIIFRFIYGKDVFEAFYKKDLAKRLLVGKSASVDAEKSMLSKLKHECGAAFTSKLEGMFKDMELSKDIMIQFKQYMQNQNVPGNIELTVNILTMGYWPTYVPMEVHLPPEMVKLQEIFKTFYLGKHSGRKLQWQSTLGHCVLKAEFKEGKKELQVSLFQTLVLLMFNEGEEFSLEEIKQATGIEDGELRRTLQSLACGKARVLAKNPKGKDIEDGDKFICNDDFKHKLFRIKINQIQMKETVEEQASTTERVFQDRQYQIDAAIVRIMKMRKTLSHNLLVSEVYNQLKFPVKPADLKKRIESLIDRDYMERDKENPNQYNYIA

[2] = target: T2, SALL2 S763/T778/S802/S806D-Flag (mutant SALL2 4D-Flag) (human) (UniProt Q9Y467); experiment: co-IP; Flag-tagged SALL2 (WT, 4A or 4D) co-expressed with CK2α K68M-HA in HEK 293 cells; SALL2 precipitated, endogenous CUL4B detected by western blot
T2 sequence: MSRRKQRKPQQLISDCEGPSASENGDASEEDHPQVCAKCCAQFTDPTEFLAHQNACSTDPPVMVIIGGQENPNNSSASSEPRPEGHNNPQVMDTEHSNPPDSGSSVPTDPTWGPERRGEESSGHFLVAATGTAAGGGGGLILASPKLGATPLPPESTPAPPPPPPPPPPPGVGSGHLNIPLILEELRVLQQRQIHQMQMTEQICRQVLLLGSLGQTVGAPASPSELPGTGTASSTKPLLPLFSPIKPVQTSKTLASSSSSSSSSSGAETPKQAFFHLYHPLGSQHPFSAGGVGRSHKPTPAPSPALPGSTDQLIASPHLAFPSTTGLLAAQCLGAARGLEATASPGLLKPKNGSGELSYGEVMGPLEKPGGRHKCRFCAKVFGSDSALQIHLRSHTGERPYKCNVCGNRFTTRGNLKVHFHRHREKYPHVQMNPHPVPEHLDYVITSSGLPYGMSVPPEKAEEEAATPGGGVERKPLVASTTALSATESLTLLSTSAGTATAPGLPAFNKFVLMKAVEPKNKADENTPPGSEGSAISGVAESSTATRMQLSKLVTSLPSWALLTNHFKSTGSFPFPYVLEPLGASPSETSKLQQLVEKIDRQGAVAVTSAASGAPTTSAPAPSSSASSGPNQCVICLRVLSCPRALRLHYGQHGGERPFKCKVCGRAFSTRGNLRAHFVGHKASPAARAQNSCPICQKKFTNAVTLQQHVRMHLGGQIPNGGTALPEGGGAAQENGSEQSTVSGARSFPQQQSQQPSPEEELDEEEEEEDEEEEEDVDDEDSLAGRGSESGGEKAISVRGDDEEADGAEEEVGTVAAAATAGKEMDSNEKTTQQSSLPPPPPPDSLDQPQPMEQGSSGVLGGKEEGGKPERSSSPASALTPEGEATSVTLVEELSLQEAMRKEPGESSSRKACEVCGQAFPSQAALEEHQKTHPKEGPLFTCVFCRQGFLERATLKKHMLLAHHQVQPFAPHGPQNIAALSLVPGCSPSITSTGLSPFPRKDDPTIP

[3] = target: T3, SALL2 S763/T778/S802/S806A-Flag (mutant SALL2 4A-Flag) (human) (UniProt Q9Y467); experiment: as above
T3 sequence: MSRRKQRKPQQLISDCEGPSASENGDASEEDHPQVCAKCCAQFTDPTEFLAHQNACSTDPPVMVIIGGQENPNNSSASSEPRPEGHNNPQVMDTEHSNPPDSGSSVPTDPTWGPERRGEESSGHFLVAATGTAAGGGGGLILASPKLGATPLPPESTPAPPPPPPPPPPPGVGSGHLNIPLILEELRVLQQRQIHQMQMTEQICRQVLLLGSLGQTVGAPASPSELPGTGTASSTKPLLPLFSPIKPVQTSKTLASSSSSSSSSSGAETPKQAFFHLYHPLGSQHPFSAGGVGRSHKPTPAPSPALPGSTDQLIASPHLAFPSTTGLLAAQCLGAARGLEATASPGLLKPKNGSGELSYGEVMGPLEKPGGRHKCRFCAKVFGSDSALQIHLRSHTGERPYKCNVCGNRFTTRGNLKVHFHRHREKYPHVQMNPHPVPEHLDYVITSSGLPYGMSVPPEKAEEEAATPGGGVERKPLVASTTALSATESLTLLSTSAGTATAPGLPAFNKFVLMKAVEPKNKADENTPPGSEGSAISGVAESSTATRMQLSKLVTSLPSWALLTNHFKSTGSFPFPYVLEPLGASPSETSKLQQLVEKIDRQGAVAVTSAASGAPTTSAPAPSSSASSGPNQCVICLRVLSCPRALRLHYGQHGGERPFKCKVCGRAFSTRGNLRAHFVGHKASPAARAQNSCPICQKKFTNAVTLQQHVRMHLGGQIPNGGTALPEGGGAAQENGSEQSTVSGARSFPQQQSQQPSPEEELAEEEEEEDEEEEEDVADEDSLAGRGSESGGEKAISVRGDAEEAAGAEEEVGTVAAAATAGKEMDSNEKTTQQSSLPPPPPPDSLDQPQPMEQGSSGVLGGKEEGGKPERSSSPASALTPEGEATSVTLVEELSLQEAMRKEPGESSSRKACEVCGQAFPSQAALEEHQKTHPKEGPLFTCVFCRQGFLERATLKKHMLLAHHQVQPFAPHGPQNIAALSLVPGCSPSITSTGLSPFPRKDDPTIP

[4] = target: T2, SALL2 S763/T778/S802/S806D-Flag (mutant SALL2 4D-Flag) (human); experiment: co-IP; SALL2-Flag forms co-expressed with HA-tagged CK2α (wild type or K68M) in HEK293 cells; lysate precipitated with anti-Flag or anti-HA, Protein AG Plus-agarose overnight, western blot
[5] = target: T3, SALL2 S763/T778/S802/S806A-Flag (mutant SALL2 4A-Flag) (human); experiment: as above
[6] = target: T4, SALL2-Flag (wild type, full length) (human) (UniProt Q9Y467); experiment: as above
T4 sequence: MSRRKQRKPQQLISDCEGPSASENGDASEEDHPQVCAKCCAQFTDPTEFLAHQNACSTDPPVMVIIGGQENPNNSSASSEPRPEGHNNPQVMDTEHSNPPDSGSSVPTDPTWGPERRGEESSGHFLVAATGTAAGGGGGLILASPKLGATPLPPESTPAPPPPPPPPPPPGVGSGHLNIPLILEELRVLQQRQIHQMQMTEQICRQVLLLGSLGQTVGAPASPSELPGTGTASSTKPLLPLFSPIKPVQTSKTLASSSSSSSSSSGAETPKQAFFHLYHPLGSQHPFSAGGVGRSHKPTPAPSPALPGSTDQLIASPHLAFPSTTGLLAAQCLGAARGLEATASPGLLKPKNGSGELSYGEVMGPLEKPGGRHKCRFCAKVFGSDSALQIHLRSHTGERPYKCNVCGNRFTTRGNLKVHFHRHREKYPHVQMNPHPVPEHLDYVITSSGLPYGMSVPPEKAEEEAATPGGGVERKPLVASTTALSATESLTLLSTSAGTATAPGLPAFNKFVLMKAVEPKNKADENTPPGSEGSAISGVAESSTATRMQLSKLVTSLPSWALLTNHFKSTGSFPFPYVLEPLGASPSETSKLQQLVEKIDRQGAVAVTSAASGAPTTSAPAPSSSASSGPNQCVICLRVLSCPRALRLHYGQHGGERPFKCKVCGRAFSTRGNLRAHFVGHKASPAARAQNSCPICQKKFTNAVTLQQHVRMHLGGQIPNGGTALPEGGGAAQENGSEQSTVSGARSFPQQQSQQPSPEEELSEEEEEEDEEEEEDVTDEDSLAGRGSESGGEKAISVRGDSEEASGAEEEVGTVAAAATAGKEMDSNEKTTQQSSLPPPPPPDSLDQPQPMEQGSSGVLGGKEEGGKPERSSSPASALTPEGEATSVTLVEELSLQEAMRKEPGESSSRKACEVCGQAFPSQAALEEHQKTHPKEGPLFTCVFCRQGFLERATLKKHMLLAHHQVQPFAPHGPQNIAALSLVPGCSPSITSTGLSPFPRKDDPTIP

GST-CK2α = GST-CK2α (UniProt P68400); experiment: pull-down; GST-CK2α-loaded Glutathione-Sepharose 4B resin incubated with purified hSALL2-His for 12 h in Igepal buffer (Tris 50 mM pH 8.0, NaCl 150 mM, MgCl2 5 mM, Igepal 1%, sodium deoxycholate 0.25%, glycerol 10%); four washes, western blot; both purified

CK2α (endogenous), alpha catalytic subunit of Casein Kinase II (from UniProt P68400 1-391) (enzyme)
binding [1]: binds

Cullin 4B ubiquitin ligase (CUL4B), endogenous (from UniProt Q13620 1-913)
binding [2]: binds | binding [3]: no binding

B1: HA-tagged CK2α K68M (dominant-negative mutant) (enzyme, UniProt P68400 1-391)
chain: MSGPVPSRARVYTDVNTHRPREYWDYESHVVEWGNQDDYQLVRKLGRGKYSEVFEAINITNNEKVVVMILKPVKKKKIKREIKILENLRGGPNIITLADIVKDPVSRTPALVFEHVNNTDFKQLYQTLTDYDIRFYMYEILKALDYCHSMGIMHRDVKPHNVMIDHEHRKLRLIDWGLAEFYHPGQEYNVRVASRYFKGPELLVDYQMYDYSLDMWSLGCMLASMIFRKEPFFHGHDNYDQLVRIAKVLGTEDLYDYIDKYNIELDPRFNDILGRHSRKRWERFVHSENQHLVSPEALDFLDKLLRYDHQSRLTAREAMEHPYFYTVVKDQARMGSSSMPGGSTPVSSANMMSGISSVPTPSPLGPLAGSPVIAAANPLGMPVPAAAGAQQ
binding [4]: binds | binding [5]: binds | binding [6]: binds

B2: SALL2-His recombinant protein (full length, FL) (protein, UniProt Q9Y467-1 1-1007)
chain: MSRRKQRKPQQLISDCEGPSASENGDASEEDHPQVCAKCCAQFTDPTEFLAHQNACSTDPPVMVIIGGQENPNNSSASSEPRPEGHNNPQVMDTEHSNPPDSGSSVPTDPTWGPERRGEESSGHFLVAATGTAAGGGGGLILASPKLGATPLPPESTPAPPPPPPPPPPPGVGSGHLNIPLILEELRVLQQRQIHQMQMTEQICRQVLLLGSLGQTVGAPASPSELPGTGTASSTKPLLPLFSPIKPVQTSKTLASSSSSSSSSSGAETPKQAFFHLYHPLGSQHPFSAGGVGRSHKPTPAPSPALPGSTDQLIASPHLAFPSTTGLLAAQCLGAARGLEATASPGLLKPKNGSGELSYGEVMGPLEKPGGRHKCRFCAKVFGSDSALQIHLRSHTGERPYKCNVCGNRFTTRGNLKVHFHRHREKYPHVQMNPHPVPEHLDYVITSSGLPYGMSVPPEKAEEEAATPGGGVERKPLVASTTALSATESLTLLSTSAGTATAPGLPAFNKFVLMKAVEPKNKADENTPPGSEGSAISGVAESSTATRMQLSKLVTSLPSWALLTNHFKSTGSFPFPYVLEPLGASPSETSKLQQLVEKIDRQGAVAVTSAASGAPTTSAPAPSSSASSGPNQCVICLRVLSCPRALRLHYGQHGGERPFKCKVCGRAFSTRGNLRAHFVGHKASPAARAQNSCPICQKKFTNAVTLQQHVRMHLGGQIPNGGTALPEGGGAAQENGSEQSTVSGARSFPQQQSQQPSPEEELSEEEEEEDEEEEEDVTDEDSLAGRGSESGGEKAISVRGDSEEASGAEEEVGTVAAAATAGKEMDSNEKTTQQSSLPPPPPPDSLDQPQPMEQGSSGVLGGKEEGGKPERSSSPASALTPEGEATSVTLVEELSLQEAMRKEPGESSSRKACEVCGQAFPSQAALEEHQKTHPKEGPLFTCVFCRQGFLERATLKKHMLLAHHQVQPFAPHGPQNIAALSLVPGCSPSITSTGLSPFPRKDDPTIP
binding (GST-CK2α): binds

Reference: article PMC10944491
